In patent US7364874B2, “Mediucm for detecting Van A and Van B vancomycin-resistant entercocci and method of using the same” (priority 2001, dated 2008):

Experiments:
Test in all cases: Test Example 2: vancomycin MIC changes when D-lactic acid (DL-sodium lactate) is added (checkerboard method)
Assay type in all cases: cell-based
[1] = system: Van C type, Enterococcus casseliflavus; details: for MIC: Enterococcus casseliflavus, 48 h
[2] = system: Enterococcus faecalis that does not carry vancomycine resistance genes (incl. ATCC29212); details: for vancomycin MIC values: 35° C., 48 hours, E. faecalis, resistance gene None, strain = table row; for MIC: Enterococcus faecalis, ATCC29212, 48 h
[3] = system: Enterococcus faecium that does not carry vancomycine resistance genes; details: for vancomycin MIC values: 35° C., 48 hours, E. faecium, resistance gene None, strain = table row; for MIC: Enterococcus faecium, 48 h
[4] = system: Van C type, Enterococcus gallinarum; details: for vancomycin MIC values: 35° C., 48 hours, E. gallinarum, vanC, strain = table row; for MIC: Enterococcus gallinarum, GALLINARUM, 48 h
[5] = system: Enterococcus avium that does not carry vancomycine resistance genes; details: for vancomycin MIC values: 35° C., 48 hours, E. avium, resistance gene None, strain = table row; for MIC: Enterococcus avium, 48 h
[6] = DL-sodium lactate added 0 mol/l
[7] = DL-sodium lactate added 0.05 mol/l
[8] = DL-sodium lactate added 0.1 mol/l

With `CN[C@H](CC(C)C)C(=O)N[C@H]1C(=O)N[C@@H](CC(N)=O)C(=O)N[C@H]2C(=O)N[C@H]3C(=O)N[C@H](C(=O)N[C@H](C(=O)O)c4cc(O)cc(O)c4-c4cc3ccc4O)[C@H](O)c3ccc(c(Cl)c3)Oc3cc2cc(c3O[C@@H]2O[C@H](CO)[C@@H](O)[C@H](O)[C@H]2O[C@H]2C[C@](C)(N)[C@H](O)[C@H](C)O2)Oc2ccc(cc2Cl)[C@H]1O` [vancomycin] the “vancomycin MIC values” ([1]; DL-sodium lactate added 0.1 mol/l, 35° C., 48 hours, E. casseliflavus, vanC, strain = table row) was 16 µg/mL, the MIC ([1]; read-out: vancomycin MIC values, DL-sodium lactate added 0 mol/l, 35° C., E. casseliflavus, vanC, strain = table row) was 8 µg/mL and the MIC ([1]; read-out: vancomycin MIC values, DL-sodium lactate added 0.05 mol/l, 35° C., E. casseliflavus, vanC, strain = table row) was 8 µg/mL. For the same compound, the MIC ([1]; read-out: vancomycin MIC values, DL-sodium lactate added 0.1 mol/l, 35° C., E. casseliflavus, vanC, strain = table row) was 8 µg/mL, the MIC ([1]; read-out: vancomycin MIC values, DL-sodium lactate added 0.2 mol/l, 35° C., E. casseliflavus, vanC, strain = table row) was 16 µg/mL and the MIC ([1]; read-out: vancomycin MIC values, DL-sodium lactate added 0.4 mol/l, 35° C., E. casseliflavus, vanC, strain = table row) was 16 µg/mL. For the same compound, the MIC ([1]; read-out: vancomycin MIC values, DL-sodium lactate added 0.8 mol/l, 35° C., E. casseliflavus, vanC, strain = table row) was 16 µg/mL, the MIC ([1]; read-out: vancomycin MIC values, DL-sodium lactate added […], 35° C., E. casseliflavus, vanC, strain = table row) was 8 µg/mL and the “vancomycin MIC values” [2, 6] was 2 µg/mL. For the same compound, the “vancomycin MIC values” ([2]; DL-sodium lactate added […]) was 0.5 µg/mL, the MIC ([2]; read-out: vancomycin MIC values, DL-sodium lactate added 0 mol/l, 35° C., E. faecalis, resistance gene None, strain = table row) was 1 µg/mL and the MIC ([2]; read-out: vancomycin MIC values, DL-sodium lactate added 0.05 mol/l, 35° C., E. faecalis, resistance gene None, strain = table row) was 2 µg/mL. The MIC ([2]; read-out: vancomycin MIC values, DL-sodium lactate added 0.1 mol/l, 35° C., E. faecalis, resistance gene None, strain = table row) was 2 µg/mL, the MIC ([2]; read-out: vancomycin MIC values, DL-sodium lactate added 0.2 mol/l, 35° C., E. faecalis, resistance gene None, strain = table row) was 2 µg/mL and the MIC ([2]; read-out: vancomycin MIC values, DL-sodium lactate added 0.4 mol/l, 35° C., E. faecalis, resistance gene None, strain = table row) was 2 µg/mL. The MIC ([2]; read-out: vancomycin MIC values, DL-sodium lactate added 0.8 mol/l, 35° C., E. faecalis, resistance gene None, strain = table row) was 2 µg/mL, the “vancomycin MIC values” [3, 7] was 2 µg/mL and the “vancomycin MIC values” ([3]; DL-sodium lactate added […]) was 2 µg/mL. The MIC ([3]; read-out: vancomycin MIC values, DL-sodium lactate added 0 mol/l, 35° C., E. faecium, resistance gene None, strain = table row) was 1 µg/mL, the MIC ([3]; read-out: vancomycin MIC values, DL-sodium lactate added 0.05 mol/l, 35° C., E. faecium, resistance gene None, strain = table row) was 1 µg/mL and the MIC ([3]; read-out: vancomycin MIC values, DL-sodium lactate added 0.1 mol/l, 35° C., E. faecium, resistance gene None, strain = table row) was 2 µg/mL. For the same compound, the MIC ([3]; read-out: vancomycin MIC values, DL-sodium lactate added 0.2 mol/l, 35° C., E. faecium, resistance gene None, strain = table row) was 2 µg/mL, the MIC ([3]; read-out: vancomycin MIC values, DL-sodium lactate added 0.4 mol/l, 35° C., E. faecium, resistance gene None, strain = table row) was 2 µg/mL and the MIC ([3]; read-out: vancomycin MIC values, DL-sodium lactate added 0.8 mol/l, 35° C., E. faecium, resistance gene None, strain = table row) was 2 µg/mL. For the same compound, the MIC ([3]; read-out: vancomycin MIC values, DL-sodium lactate added […], 35° C., E. faecium, resistance gene None, strain = table row) was 1 µg/mL, the “vancomycin MIC values” [4, 6] was 16 µg/mL and the “vancomycin MIC values” [4, 7] was 16 µg/mL. For the same compound, the “vancomycin MIC values” [4, 8] was 16 µg/mL, the MIC ([4]; read-out: vancomycin MIC values, DL-sodium lactate added 0 mol/l, 35° C., E. gallinarum, vanC, strain = table row) was 8 µg/mL and the MIC ([4]; read-out: vancomycin MIC values, DL-sodium lactate added 0.05 mol/l, 35° C., E. gallinarum, vanC, strain = table row) was 8 µg/mL. The MIC ([4]; read-out: vancomycin MIC values, DL-sodium lactate added 0.1 mol/l, 35° C., E. gallinarum, vanC, strain = table row) was 8 µg/mL, the MIC ([4]; read-out: vancomycin MIC values, DL-sodium lactate added 0.2 mol/l, 35° C., E. gallinarum, vanC, strain = table row) was 16 µg/mL and the MIC ([4]; read-out: vancomycin MIC values, DL-sodium lactate added 0.4 mol/l, 35° C., E. gallinarum, vanC, strain = table row) was 16 µg/mL. The MIC ([4]; read-out: vancomycin MIC values, DL-sodium lactate added 0.8 mol/l, 35° C., E. gallinarum, vanC, strain = table row) was 16 µg/mL, the MIC ([4]; read-out: vancomycin MIC values, DL-sodium lactate added […], 35° C., E. gallinarum, vanC, strain = table row) was 8 µg/mL and the “vancomycin MIC values” [5, 6] was 2 µg/mL. For the same compound, the “vancomycin MIC values” [5, 7] was 2 µg/mL, the “vancomycin MIC values” [5, 8] was 2 µg/mL and the MIC ([5]; read-out: vancomycin MIC values, DL-sodium lactate added 0 mol/l, 35° C., E. avium, resistance gene None, strain = table row) was 1 µg/mL. It also gave an MIC ([5]; read-out: vancomycin MIC values, DL-sodium lactate added 0.05 mol/l, 35° C., E. avium, resistance gene None, strain = table row) of 1 µg/mL, an MIC ([5]; read-out: vancomycin MIC values, DL-sodium lactate added 0.1 mol/l, 35° C., E. avium, resistance gene None, strain = table row) of 1 µg/mL and an MIC ([5]; read-out: vancomycin MIC values, DL-sodium lactate added 0.2 mol/l, 35° C., E. avium, resistance gene None, strain = table row) of 2 µg/mL. It also gave an MIC ([5]; read-out: vancomycin MIC values, DL-sodium lactate added 0.4 mol/l, 35° C., E. avium, resistance gene None, strain = table row) of 2 µg/mL, an MIC ([5]; read-out: vancomycin MIC values, DL-sodium lactate added 0.8 mol/l, 35° C., E. avium, resistance gene None, strain = table row) of 2 µg/mL and an MIC ([5]; read-out: vancomycin MIC values, DL-sodium lactate added […], 35° C., E. avium, resistance gene None, strain = table row) of 1 µg/mL.

Like-named read-outs stand apart in the source and are kept apart here.
